The other results are listed elsewhere or left out.
System: HepG2
Assay: cytotoxicity call (relative viability < 0.9)
Settings: 10 µM

Row | SMILES | cytotoxicity call
1 | O=C1CCC(=O)N1Cc1cccc(CN2C(=O)[C@]3(CC(=O)N(Cc4ccccc4)C3=O)c3ccccc32)c1 | inactive
2 | O=c1oc2c(O)c(O)cc3c(=O)oc4c(O)c(O)cc1c4c23 | active
3 | CCCN(C)C[C@@H]1OCCCC[C@H](C)Oc2ccc(NC(=O)c3ccccc3)cc2C(=O)N([C@@H](C)CO)C[C@@H]1C | inactive
4 | CN(C)C(=O)C[C@H]1CC[C@@H]2[C@H](COC[C@H](O)CN2S(=O)(=O)c2ccccc2)O1 | inactive
5 | C[C@H]1CCCCO[C@H](CN(C)C(=O)Nc2ccc3c(c2)OCO3)[C@@H](C)CN([C@@H](C)CO)C(=O)c2cc(NC(=O)NC3CCCCC3)ccc2O1 | inactive
6 | COc1ccc(NC(=O)N(C)C[C@H]2OCCCC[C@@H](C)Oc3ccc(NC(=O)CCC(F)(F)F)cc3C(=O)N([C@H](C)CO)C[C@@H]2C)cc1 | inactive
7 | COc1ccc(S(=O)(=O)N(C)C[C@@H]2OCc3cn(nn3)CCCC(=O)N([C@H](C)CO)C[C@H]2C)cc1 | inactive
8 | Cn1cc(CN2CCO[C@]3(COCCN(S(C)(=O)=O)C3)C2)cn1 | inactive
9 | O=c1c(O[C@@H]2O[C@H](CO)[C@@H](O)[C@H](O)[C@H]2O)c(-c2ccc(O)c(O)c2)oc2cc(O)cc(O)c12 | inactive
10 | C[C@H](CO)N1C[C@H](C)[C@H](CN(C)C(=O)NC2CCCCC2)Oc2c(NC(=O)c3ccc(-c4nccs4)cc3)cccc2C1=O | inactive
11 | C[C@@H]1CN([C@H](C)CO)C(=O)c2cc(NC(=O)C3CCCCC3)ccc2O[C@@H](C)CCCCO[C@H]1CN(C)C(=O)Cc1ccccc1 | inactive
12 | CC(=O)OC1(C(C)=O)CCC2C3C=C(C)C4=CC(=O)CCC4(C)C3CCC21C (stereo not given) | inactive
13 | C[C@@H]1CCCCO[C@H](CN(C)Cc2ccc(C(=O)Nc3ccccc3N)cc2)[C@@H](C)CN([C@H](C)CO)C(=O)c2cc(NS(=O)(=O)c3ccc(Cl)cc3)ccc2O1 | inactive
14 | CC(C)NC(=O)Nc1ccc2c(c1)C(=O)N([C@@H](C)CO)C[C@H](C)[C@H](CN(C)C(=O)Nc1ccccc1)OCCCC[C@H](C)O2 | inactive
15 | Cc1ccc(NC(=O)[C@H]2CCCN(C(=O)c3c(C)cccc3F)[C@H]2c2ccc(NC3CCCC3)cc2)cc1C(F)(F)F | inactive
16 | COCC(=O)N1C[C@@H](C)[C@H](OC)CN(C)C(=O)c2cc(NC(=O)Nc3ccccc3)ccc2OC[C@@H]1C | inactive
17 | COc1ccc(S(=O)(=O)N(C)C[C@H]2Oc3ccc(NS(=O)(=O)c4c(C)noc4C)cc3C(=O)N([C@H](C)CO)C[C@H]2C)cc1 | inactive
18 | COCC#Cc1ccc([C@@H]2[C@@H](CO)N3C(=O)CN(C(=O)c4ccncc4)C[C@H]23)cc1 | inactive
19 | COc1ccc(S(=O)(=O)N(C)C[C@H]2Oc3ccc(N(C)C)cc3CC(=O)N([C@@H](C)CO)C[C@H]2C)cc1 | inactive
20 | Cc1noc(C)c1NC(=O)N(C)C[C@@H]1Oc2ccc(NC(=O)Nc3cccc4ccccc34)cc2CC(=O)N([C@@H](C)CO)C[C@H]1C | inactive

Row | SMILES | cytotoxicity call
21 | CC(C)CC(N)=O | inactive
22 | C[C@@H]1CCCCO[C@H](CN(C)Cc2ccncc2)[C@@H](C)CN([C@@H](C)CO)C(=O)c2cc(NC(=O)Nc3ccccc3)ccc2O1 | inactive
23 | C[C@@H]1CN([C@H](C)CO)C(=O)c2ccccc2-c2ccccc2CO[C@@H]1CN(C)C(=O)Nc1ccc(-c2ccccc2)cc1 | inactive
24 | C[C@H]1CN([C@@H](C)CO)C(=O)Cc2cc(NC(=O)CCCCCC(=O)Nc3ccccc3N)ccc2O[C@@H]1CN(C)C(=O)Nc1ccc(F)cc1 | inactive
25 | Cc1[nH]c2ncnn2c(=O)c1NS(C)(=O)=O | inactive
26 | C[C@@H]1CN([C@H](C)CO)C(=O)c2cc(NS(C)(=O)=O)ccc2O[C@@H]1CN(C)S(=O)(=O)c1cn(C)cn1 | inactive
27 | COc1cccc(-c2ccc3c(c2)O[C@H](CN(C)Cc2cncnc2)[C@H](C)CN([C@@H](C)CO)S3(=O)=O)c1 | inactive
28 | Nc1ncnc2[nH]c(=S)[nH]c12 | inactive
29 | C[C@H](CO)N1C[C@H](C)[C@H](CN(C)Cc2ccc(C(=O)Nc3ccccc3N)cc2)Oc2ccc(NC(=O)Cn3cnnn3)cc2C1=O | inactive
30 | C[C@@H]1CN([C@@H](C)CO)C(=O)Cc2cc(NS(=O)(=O)c3cccs3)ccc2O[C@H]1CN(C)Cc1ccc(Oc2ccccc2)cc1 | inactive
31 | Cl.N=C(N)NCCCC(N)C(=O)O (stereo not given) | inactive
32 | CCCCC1=NC2(CCCC2)C(=O)N1Cc1ccc(-c2ccccc2S(=O)(=O)Nc2noc(C)c2C)c(COCC)c1 | inactive
33 | CN(C)CC(=O)N[C@@H]1CC[C@@H](CCNS(=O)(=O)c2ccccc2)O[C@H]1CO | inactive
34 | C[C@@H]1CN([C@@H](C)CO)C(=O)c2cc(NC(=O)Nc3ccc4c(c3)OCO4)ccc2O[C@H]1CN(C)Cc1ccc(C(=O)Nc2ccccc2N)cc1 | inactive
35 | CC(C)NC(=O)Nc1ccc2c(c1)C(=O)N([C@H](C)CO)C[C@H](C)[C@H](CN(C)S(=O)(=O)c1cccs1)O2 | inactive
36 | C[C@@H]1CN([C@@H](C)CO)C(=O)Cc2cc(NC(=O)Nc3ccccc3)ccc2O[C@@H]1CN(C)S(=O)(=O)c1cn(C)cn1 | inactive
37 | CC(C)NC(=O)Nc1ccc2c(c1)C(=O)N([C@@H](C)CO)C[C@@H](C)[C@@H](CN(C)C(=O)Nc1ccccc1)OCCCC[C@@H](C)O2 | inactive
38 | C[C@@H]1CN([C@@H](C)CO)C(=O)c2cc(C#CCN(C)C)cnc2O[C@H]1CN(C)C(=O)c1cnccn1 | inactive
39 | O=C1NC(=S)NC12CCCCC2 | inactive
40 | O=C(N/N=C/[C@H](O)[C@H](O)[C@@H](O)[C@@H](O)CO)c1ccccc1O | active
